From patent US12729231B2, “Fusion protein having triple activity and use thereof” (SHANGHAI MINWEI BIOTECHNOLOGY CO., LTD, priority 2023, dated 2026)

Tests used:
[1] = biological target: T1, human GLP-1 receptor (Homo sapiens, UniProt P43220); experiment: in vitro GLP-1 activity, CRE-luciferase reporter in CHO-K1 cells; format: cell-based; conditions: CHO-K1 cells expressing human GLP-1 receptor and CRE-luciferase, 5 hours incubation
T1 construct: expressed in transfected cells; host or cells: CHO-K1
Experimental: (§1) CHO-K1 cells expressing human GLP-1 receptor and CRE-luciferase were used to detect the in vitro GLP-1 activity of the fusion proteins. The cells were inoculated in a 96-well plate at a density of 30,000 cells/well/100 μL, and cultured at 5% CO2, 37° C. for 1 hour. For each protein sample to be tested, the protein solution was diluted 9 times with a 4-fold gradient with PBS containing 2% HAS starting from a certain concentration, so that 10 dilutions of each sample with different concentrations were obtained. 50 μL of each dilution was taken out and added into the 96-well plate inoculated with cells, and the 96-well plate was incubated at 5% CO2, 37° C. for 5 hours. The 96-well plate was taken out from the incubator and placed at room temperature for 10 minutes of equilibration, and 100 μL of reaction solution was added into each well. After the 96-well plate was shaken at 200 rpm for 10 minutes, the fluorescence reading of each well was detected by a multi-function microplate reader. Using the sample concentration as the abscissa and the fluorescence reading as the ordinate, a curve was drawn and the median effective concentration (EC50) of each sample was calculated.

[2] = system: db/db mice; experiment: blood glucose reduction by multiple subcutaneous injections in db/db diabetes mice; format: in vivo; conditions: 30 nmol/kg subcutaneous twice a week
Experimental: After adaptive feeding of animals, fasting blood glucose following a 4-hour fasting period was measured once a week. Except for the 6 mice in control group (Wild type), db/db mice were divided into groups for experiments after their 4-hour fasting blood glucose levels reached the high blood glucose standard (>16.7 mmol/L). Twenty-four male db/db mice that reached the high blood glucose standard were divided into 4 groups based on their blood glucose levels and body weight, with 6 mice in each group. […] After the experimental animals were grouped, corresponding drug treatment was administered subcutaneously (twice a week) at a dose of 30 nmol/kg. During the administration period, random blood glucose and fasting blood glucose (fasting for 4 hours) were measured twice a week.

[3] = system: DIO mice; experiment: body weight reduction by multiple subcutaneous injections in DIO mice; format: in vivo
Experimental: 7-week-old C57BL/6Nju mice were fed with a high-fat diet (of about 20% protein and about 60% fat) for 12 weeks for modeling. Feeding conditions: 12 hours of light and 12 hours of darkness cycle every day, ad libitum feeding, temperature 20-25° C., relative humidity 40-70%, ventilation frequency of 10-15 times/hour. According to body weight, water consumption, and food intake, the mice were randomly divided into groups the day before administration. […] Subcutaneous injection treatment was administered twice a week for 5 consecutive weeks, for a total of 10 administrations. After the administration, the body weight, OGTT, body fat ratio, blood lipids and liver function of the mice were measured. The data are shown as mean±standard deviation, and statistically analyzed by One-Way ANOVA.

[4] = biological target: T2, human GIP receptor (Homo sapiens, UniProt P48546); experiment: in vitro GIP activity, CRE-luciferase reporter in CHO-K1 cells; format: cell-based; conditions: CHO-K1 cells expressing human GIP receptor and CRE-luciferase, 5 hours incubation
T2 construct: expressed in transfected cells; host or cells: CHO-K1
T2 sequence (P48546 22-466): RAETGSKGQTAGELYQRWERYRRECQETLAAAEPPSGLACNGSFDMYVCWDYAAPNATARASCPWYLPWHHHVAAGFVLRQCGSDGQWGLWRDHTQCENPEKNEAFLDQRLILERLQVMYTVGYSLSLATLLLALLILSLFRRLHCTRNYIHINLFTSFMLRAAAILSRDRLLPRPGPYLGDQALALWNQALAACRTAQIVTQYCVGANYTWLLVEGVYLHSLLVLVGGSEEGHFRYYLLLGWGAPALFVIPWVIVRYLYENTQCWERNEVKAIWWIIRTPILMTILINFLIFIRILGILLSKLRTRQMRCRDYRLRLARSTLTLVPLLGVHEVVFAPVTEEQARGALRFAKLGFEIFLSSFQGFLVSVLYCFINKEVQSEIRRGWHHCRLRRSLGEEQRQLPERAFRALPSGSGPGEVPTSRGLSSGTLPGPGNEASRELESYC
Experimental: as §1, with “GIP” for “GLP-1”

[5] = DIO mice, 30 nmol/kg subcutaneous twice a week for 5 weeks, mean of 6 mice
[6] = DIO obese mice, 30 nmol/kg subcutaneous twice a week for 5 weeks, mean of 6 mice

T1 sequence (P43220 24-463): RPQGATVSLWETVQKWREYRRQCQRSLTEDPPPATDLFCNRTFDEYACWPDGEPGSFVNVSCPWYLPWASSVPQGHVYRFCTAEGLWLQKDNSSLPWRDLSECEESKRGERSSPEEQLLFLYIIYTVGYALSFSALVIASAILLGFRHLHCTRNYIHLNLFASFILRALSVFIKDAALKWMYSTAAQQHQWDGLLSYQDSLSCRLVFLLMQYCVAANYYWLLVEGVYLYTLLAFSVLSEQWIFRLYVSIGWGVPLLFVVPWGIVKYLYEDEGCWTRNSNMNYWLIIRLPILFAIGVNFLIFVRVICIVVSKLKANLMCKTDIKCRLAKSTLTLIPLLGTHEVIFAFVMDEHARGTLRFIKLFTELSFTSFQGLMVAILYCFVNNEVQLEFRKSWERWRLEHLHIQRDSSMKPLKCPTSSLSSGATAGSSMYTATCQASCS

B1: 12C12-F: GLP-1/GIP mutant 12C12 (SEQ ID NO 19)-linker-IgG4 Fc-linker-FGF21 mutant fusion protein, SEQ ID NO 7 (protein)
chain: HSEGTFTSDYSILLDKIAQKAFIEWLIAGGPSSGAPPPSGGGGSGGGGSGGGGSA[human IgG4 Fc with S228P F234A L235A (EU numbers) not listed]GGGGSGGGGSGGGGSHPIPDSSPLLQFGGQVRQVYLYTDDAQQTEAHLEIREDGTVGGAADQSPESLLQLKALKPGVIQILGVKTSRFLCQRPDGALYGSLHFDPEACSFRERLLEDGYNVYQSEAHGLPLHLPGNKSPHRDPAPRGPARFLPLPGLPPALPEPPGILAPQPPDVGSSDPLSMVGNSTGRSPSYAS
modifications: 12C12-F fusion protein
B1 was tested, and the EC50 [1] was 0.642 nM, the “blood glucose level compared with normal control group” value [2] was “basically identical to that of the normal control group” and the “hypoglycemic effect compared with Tirzepatide and Fc-FGF21” value ([2]; random and fasting blood glucose (FIG. 1, FIG. 2)) was “significantly better than that of Tirzepatide (GLP-1/GIP dual activity) and Fc-FGF21 (FGF21 single activity)”. The ALT [3, 5] was 14.683 U/L, the AST [3, 5] was 55.183 U/L and the “Blood glucose (fasting)” value [3, 5] was 5.2 mmol/L. For the same molecule, the “LDL-C (plasma low-density lipoprotein cholesterol)” value [3, 5] was 0.383 mmol/L, the “TC (plasma total cholesterol)” value [3, 5] was 3.348 mmol/L and the “effect on blood glucose, plasma lipids and liver function” value ([3]; DIO obese mice) was “significantly reduce blood glucose, plasma total cholesterol and low-density lipoprotein cholesterol, improve liver function, and basically return them to normal”. The “% Change in weight since inception” value [3, 6] was −39.73%, the Body fat ratio [3, 6] was 16.16% and the “effect on body weight and body fat ratio” value ([3]; DIO obese mice, compared with Tirzepatide and Fc-FGF21) was “significantly reduce the body weight and body fat ratio of DIO obese mice, and the reduction extent is significantly greater than that of the control Tirzepatide and Fc-FGF21”. The EC50 [4] was 0.006 nM.

B2: 12C2-F: fusion protein with R1 = 12C2 (SEQ ID NO 9), linker, Fc, linker, FGF21 element (protein)
chain: B1 chain with L13Y
For B2, the EC50 [1] was 2.66 nM and the EC50 [4] was 0.073 nM.

Residue numbers refer to the chain shown, from its start.
